# In PMC4336329 (PLoS ONE, 2015):
# The campaign covered roughly 310,000 compounds. About 2,200 (0.71%) showed an effect of 50% or more. The effect is printed as a negative number. Some of the results follow.
# Molecular target: human ether-à-go-go-related gene (hERG) potassium channel (human, UniProt Q12809)
# Assay: primary screen, population patch clamp on CHO cells stably expressing hERG
# human ether-à-go-go-related gene (hERG) potassium channel, sequence (Q12809 whole entry, looked up): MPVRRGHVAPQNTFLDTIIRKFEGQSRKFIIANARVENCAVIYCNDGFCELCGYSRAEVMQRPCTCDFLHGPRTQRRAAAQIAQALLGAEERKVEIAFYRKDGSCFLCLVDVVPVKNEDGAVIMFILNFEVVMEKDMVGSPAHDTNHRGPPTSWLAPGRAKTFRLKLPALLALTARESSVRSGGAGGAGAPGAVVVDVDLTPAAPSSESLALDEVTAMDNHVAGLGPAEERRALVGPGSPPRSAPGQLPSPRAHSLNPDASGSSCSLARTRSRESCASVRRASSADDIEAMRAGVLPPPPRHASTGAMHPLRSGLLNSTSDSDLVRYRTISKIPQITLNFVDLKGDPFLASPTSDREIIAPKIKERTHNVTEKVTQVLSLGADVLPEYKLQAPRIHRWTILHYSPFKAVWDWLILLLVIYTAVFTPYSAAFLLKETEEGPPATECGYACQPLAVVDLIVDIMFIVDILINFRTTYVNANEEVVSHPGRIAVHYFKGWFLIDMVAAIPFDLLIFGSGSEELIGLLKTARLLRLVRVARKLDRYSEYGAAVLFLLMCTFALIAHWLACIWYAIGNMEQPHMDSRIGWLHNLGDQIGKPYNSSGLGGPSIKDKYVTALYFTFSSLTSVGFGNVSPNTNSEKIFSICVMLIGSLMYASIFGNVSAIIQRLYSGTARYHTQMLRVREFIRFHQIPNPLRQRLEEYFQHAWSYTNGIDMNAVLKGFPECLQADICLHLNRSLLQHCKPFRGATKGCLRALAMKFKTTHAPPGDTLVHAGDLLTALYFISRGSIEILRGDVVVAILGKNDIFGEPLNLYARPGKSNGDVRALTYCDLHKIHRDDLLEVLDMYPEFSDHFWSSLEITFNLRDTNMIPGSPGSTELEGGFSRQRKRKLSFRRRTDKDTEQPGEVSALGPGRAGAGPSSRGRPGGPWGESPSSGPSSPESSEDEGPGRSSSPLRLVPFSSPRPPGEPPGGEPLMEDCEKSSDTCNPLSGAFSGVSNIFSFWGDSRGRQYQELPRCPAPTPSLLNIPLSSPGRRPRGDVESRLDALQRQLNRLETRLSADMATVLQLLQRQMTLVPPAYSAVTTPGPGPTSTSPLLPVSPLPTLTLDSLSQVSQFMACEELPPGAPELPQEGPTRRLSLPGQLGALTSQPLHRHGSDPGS
row,SMILES,"hERG current change (%, negative = inhibition) at 1uM [%]"
1,CCOC(=O)CSc1nc2cc(C(F)(F)F)cnc2n1C,2.73
2,COc1ccc(NC(=O)c2nnn(Cc3cccc(F)c3)c2N)c(OC)c1,9.17
3,CCn1c(CC(C)C)n[nH]c1=S,2.92
4,CCOc1ccc(C(=O)CCC(=O)NCC(=O)OCc2ccccc2)cc1OCC,15.2
5,C#CCNC(=O)C1=C[C@@H](c2ccc(C(F)(F)F)cc2)C[C@@H](OCc2ccc(CO)cc2)O1,3.5
6,CCOc1ccc(C(N)=O)cc1OC,3.09
7,CCc1ccc(-n2c(SCC(=O)c3ccc4c(c3)NC(=O)CO4)nc3ccccc3c2=O)cc1,7.58
8,COc1cccc(Nc2nc(NCCO)c3ccccc3n2)c1.Cl,-11.4
9,CN(CC(=O)Nc1ccc(N2CCOCC2)cc1)Cc1c(O)ccc2ccccc12,9.83
10,COc1cccc(CN(C)C(=O)C2CC(=O)N(c3ccc4c(c3)OCCO4)C2)c1 (centres unmarked),14.1
11,O=C(COC(=O)CNS(=O)(=O)c1ccc2ccccc2c1)Nc1ccccc1Sc1ccccc1,17.1
12,CCOc1ccccc1/C=C\c1nc(O)c([N+](=O)[O-])c(=O)[nH]1,12.1
13,COc1ccccc1NC(=O)c1nn(C)cc1Br,15.2
14,Cc1cccc(C)c1OCC(=O)NNC(=O)CCNC(=O)c1ccc(Br)cc1,-4.97
15,CN1C(=O)N(C)c2cccc3cccc1c23,6.28
16,CC(Cc1c[nH]c2ccccc12)C(=O)N1CCN(c2ccccc2F)CC1 (centres unmarked),15.5
17,Cc1ccc(S(=O)(=O)NCCN(CCNS(=O)(=O)c2ccc(C)cc2)S(C)(=O)=O)cc1,22.4
18,Nc1ncnc2c1ncn2C1OC(CO)C(O)C1O (centres unmarked),11.8
19,COc1ccc(NC(=O)CN(C)C(=O)CNC(=O)c2cccs2)cc1,7.34
20,CC(C)Cc1ccc(CN2CCCC(NC(=O)CSc3nncn3C)C2)cc1 (centres unmarked),12.1
21,O=C(Nc1cccc2c1CCCC2)c1ccc(Br)o1,-4.3
22,CCCCN(C)C/C(O)=C(\C#N)c1nc(-c2ccccc2)cs1,8.36
23,COc1ccc(C2C3=C(CCCC3=O)Nc3c(-c4ccccc4)c(C)nn32)cc1 (centres unmarked),12.5

row,SMILES,"hERG current change (%, negative = inhibition) at 1uM [%]"
1,Cc1ccc2cc3c(nc2c1)N(c1ccccc1)CC3,9.32
2,COc1ccc(N=C2NN=C(c3ccc4c(c3)OCCO4)CS2)cc1,13.8
3,CN(C)S(=O)(=O)c1ccc2c(c1)nc(CCC(=O)Nc1ccc3c(c1)OCO3)n2C,6.1
4,Cc1c(NC(=O)C23CC4CC(CC(Br)(C4)C2)C3)c(=O)n(-c2ccccc2)n1C,12.8
5,CCOC(=O)C1NN=C(C(=O)c2ccccc2)C1c1ccc(Cl)cc1 (centres unmarked),4.24
6,O=C(NCc1ccccn1)C(=O)NCC(c1ccco1)N1CCOCC1 (centres unmarked),10.7
7,CCOc1ccc(N2C(=O)C3CCCN3C2=O)cc1 (centres unmarked),16.1
8,CCOc1ccc(NS(=O)(=O)c2ccc(C(=O)N(CC)CC(=O)NCc3cccs3)cc2)cc1,6.53
9,O=S1(=O)Cc2cc3ccccc3cc2C1,12.4
10,N#CCC(=O)Nc1ccc(C(=O)OCC(=O)C23CC4CC(CC(C4)C2)C3)cc1,11.4
11,O=C(Cc1cccc2ccccc12)N1CC[C@@]2(O)CCCC[C@H]2C1,12.5
12,O=S(=O)(c1ccc(NCCOCCO)nc1)N1CCCCC1,9.8
13,COCCN(C(=O)CSCc1ccccc1)c1c(N)n(Cc2ccccc2)c(=O)[nH]c1=O,-0.41
14,CCOC(=O)COc1nc(N(C)C)nc(N(C)C)n1,4
15,COCCNC(C(=O)Nc1ccc(C)cc1[N+](=O)[O-])c1ccccc1 (centres unmarked),12.5
16,C=C(C)CN1CCN(c2ccc(N3C(=O)CCCC3=O)cc2[N+](=O)[O-])CC1,9.9
17,COc1ccc(C(=O)Oc2ccc(-c3nnco3)cc2)cc1S(=O)(=O)N1CCOCC1,6.8
18,COc1ccccc1CNC(=O)C1CCN(S(=O)(=O)c2ccc(-n3cnnn3)cc2)CC1,-9.4
19,Cc1ccc(C(=O)Nc2ccc(C)c(S(=O)(=O)Nc3ccccc3Cl)c2)s1,0.857
20,CCOc1cc(N2CCOCC2)c(OCC)cc1NC(=O)CSc1ncccn1,3.41
21,O=[N+]([O-])c1cc(-c2nnc(C34CC5CC(CC(C5)C3)C4)o2)cc([N+](=O)[O-])c1,-5.78
22,COCCn1c(SCC(=O)N2CCCc3ccccc32)nnc1-c1ccco1,12.2
23,Cc1cc(NC(=O)CN2C(=O)NC(C)(c3ccccc3)C2=O)no1 (centres unmarked),-15.9

row,SMILES,"hERG current change (%, negative = inhibition) at 1uM [%]"
1,O=C(O)c1ccc(NC(=O)c2ccccc2Br)c(NC(=O)c2ccccc2Br)c1,13.1
2,Cc1ccc(COC(=O)Cc2coc3cc(O)ccc23)cc1,8.06
3,O=[N+]([O-])c1ccc(Cl)c(C[n+]2cccc3ccccc32)c1.[Br-],11.1
4,CCN1/C(=C/C=C/c2sc3ccccc3[n+]2CC)Sc2ccccc21.[I-],-36.8
5,COc1ccc(C)cc1S(=O)(=O)Nc1cc2c3c(c1)C(C)C(=O)N3CCC2 (centres unmarked),-2.09
6,C=CCNC(=O)CSc1nc2sccc2c(=O)n1-c1ccccc1,12.5
7,COc1ccc(CNCCc2c(C)[nH]c3ccc(OC(F)(F)F)cc23)c(OC)c1.O=C(O)C(=O)O,-6.91
8,CS(=O)(=O)N(CC(=O)N1CCN(c2ccccc2)CC1)c1cccc(Br)c1,1.4
9,CC(Sc1nnc(-c2ccccc2Br)n1-c1cccc(C(F)(F)F)c1)C(N)=O (centres unmarked),1.77
10,COCOc1ccc(-c2cc(=O)c3c(OCOC)cc(OCOC)cc3o2)cc1,7.39
11,O=C(Nc1ccccc1OC(=O)c1ccc(Cl)cc1)c1ccc(Cl)cc1,13.4
12,COC(=O)c1cc(N=C(N)N=C(N)N)cc(C(=O)OC)c1,11.1
13,CCOc1ncccc1C(=O)Nc1ccc(C(=O)Nc2ccc(OC)cc2)cc1,1.87
14,CC1(C)Cc2ccccc2C(=NCC(=O)O)N1,17.9
15,CN(C)S(=O)(=O)c1ccc(C(=O)Nc2nnc(SCc3cccc4ccccc34)s2)cc1,1.9
16,CCOC(=O)c1cnc(-n2nc(C)cc2C)nc1Oc1ccc(C#N)cc1,18.1
17,COc1cccc(NC(=O)COc2ncnc3sc(C)c(C)c23)c1,12.4
18,Cc1ccccc1C(=O)NCc1nnc(SCC(=O)N2CCN(c3ccccc3)CC2)n1C,12.3
19,CCN(CC(=O)Nc1cc(Cl)ccc1C)C(=O)C1CCCCC1,7.25
20,COc1ccccc1C(=O)NNC(=O)c1ccc(NC(=O)c2ccccc2)cc1,9.78
21,O=C(N/N=C/c1cccs1)c1cccc2cc[nH]c12,1.17
22,CC(=O)c1ccc(COC(=O)c2ccccc2NC(=O)C(C)C)cc1,1.01
23,N/C(=N\OC(=O)c1cccc(Br)c1)c1ccncc1,10.3

row,SMILES,"hERG current change (%, negative = inhibition) at 1uM [%]"
1,Cc1c(Br)c([N+](=O)[O-])nn1CC(=O)Nc1ccc(Cc2ccncc2)cc1,13.6
2,COc1ccc(-c2noc(N3CCC(C(=O)NCc4ccc(Cl)cc4)CC3)n2)cc1,17.7
3,O=S(=O)(NCCc1csc(-c2cccnc2)n1)c1ccc(Cl)s1,-1.02
4,O=C(c1ccc(F)cc1)N1CCOCC1,15.3
5,Cc1ccc(-c2ccnc(=S)[nH]2)cc1,13.7
6,COc1ccc(N2CCN(C(CNC(=O)C(=O)NCCc3c[nH]c4ccccc34)c3ccco3)CC2)cc1 (centres unmarked),1.89
7,CC(=O)c1cccc(NC(=O)c2ccc3c(c2)CCN3S(=O)(=O)c2ccccc2)c1,14.5
8,CCC1Oc2ccccc2N(CC(=O)NCCCN2CCOCC2)C1=O (centres unmarked),0.93
9,Cc1cc(=O)oc(C)c1C(=O)OCC(=O)c1ccccc1,4.96
10,Cc1ccc(OCC(=O)NNC(=O)CCC(=O)NCc2ccccc2)cc1,-15.1
11,O=C(Cc1ccccc1)Nc1nnc(-c2cccc([N+](=O)[O-])c2)s1,9.05
12,CC1CC(C)CN(C(=O)c2cc(S(=O)(=O)N3CCCCC3)ccc2Cl)C1 (centres unmarked),-5.68
13,Nc1c2c(nn1-c1ccccc1)CCC2,11
14,Oc1cccc(-c2nc3ccc4ccccc4c3c3c2CCC3)c1,11.8
15,CCOc1ccc(Nc2ccc3nonc3c2[N+](=O)[O-])cc1,2.23
16,Cc1cccc(OCc2nn[nH]n2)c1C,11.1
17,O=C(Nc1ccon1)c1ccc(Br)s1,7.09
18,CCN(C(=O)c1cccc(Br)c1)c1ccccc1,6.97
19,Cc1occc1-c1nnc(SCC(=O)NC2CCCC2)n1C,13.5
20,Nc1ccc(-c2nnc(-c3ccccc3)o2)cc1,10.9
